Some of the results follow. At the low end of the ranking, values are background and their order means little.
target: GST-SBP-SLBP (stem-loop binding protein) (UniProt Q14493); test: targeted RNA Bind-n-Seq; conditions: RBNS binding buffer: 25 mM Tris pH 7.5, 150 mM KCl, 3 mM MgCl2, 0.1% Tween, 0.5 mg/mL BSA, 1 mM DTT; 27 nM protein, 750 pM RNA pool; temperature not stated; high values mean tight binding;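 note: DESeq read counts versus GST-SBP nonspecific binding control pulldown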

Sequence | binding signal (log2 fold change)
GGUCACGUCUCAAUCAACUCUUUCCCAGGAGUUUACUCCUGCAAUUUCAACAGCUCGCAGUCAAG | 0.127
GGUCACGUCUCAAUCAACUCUAUCCCCAGGGAAAUCCCUGGUUAUUUCAACAGCUCGCAGUCAAG | -0.0565
GGUCACGUCUCAAUCAACUCUAUUCCAGGAGUUUCCUCCUGUUUUCUCAACAGCUCGCAGUCAAG | 0.0762
GGUCACGUCUCAAUCAACUCAACGCCAGGAGUUUCCUCCUGUUUUCUCAACAGCUCGCAGUCAAG | 0.171
GGUCACGUCUCAAUCAACUCAAUUUCAGGAGUUUGCUCCUGUUUUUUCAACAGCUCGCAGUCAAG | 0.18
GGUCACGUCUCAAUCAACUCAGUCCCCAGGGAAACCCCUGGCAAAUUCAACAGCUCGCAGUCAAG | 0.0713
GGUCACGUCUCAAUCAACUCAAUCCCAGGAGUUUUCUCCUGUAUUCUCAACAGCUCGCAGUCAAG | -0.00559
GGUCACGUCUCAAUCAACUCUCUCGAGGGGGGGAAAACCCCUUUGCCCUCAAAAUCAACAGCUCGCAGUCAAG | 0.354
GGUCACGUCUCAAUCAACUCAACUCCCAGGGAAAACCCUGGCUUACUCAACAGCUCGCAGUCAAG | 0.0456
GGUCACGUCUCAAUCAACUCAUCCCCAGGAGUUUUCUCCUGUAUUCUCAACAGCUCGCAGUCAAG | 0.115
GGUCACGUCUCAAUCAACUCUUCCUCAGGAGUUUUCUCCUGCUUUUUCAACAGCUCGCAGUCAAG | 0.0635
GGUCACGUCUCAAUCAACUCUAAAGAGGGGGGGAAAACCCCUUUGCCCUCCAUGUCAACAGCUCGCAGUCAAG | -0.16
GGUCACGUCUCAAUCAACUCUACUCCCAGGGAAAACCCUGGUAUAUUCAACAGCUCGCAGUCAAG | -0.0733
GGUCACGUCUCAAUCAACUCUUCUUCAGGAGUUUACUCCUGCAUAUUCAACAGCUCGCAGUCAAG | 0.184
GGUCACGUCUCAAUCAACUCACCCGAGGGGGGGAAAACCCCUUUACCCUCACAUUCAACAGCUCGCAGUCAAG | -0.27
GGUCACGUCUCAAUCAACUCUACUUCCAGGGAAAACCCUGGCAUAUUCAACAGCUCGCAGUCAAG | 0.0931
GGUCACGUCUCAAUCAACUCUAUCUCAGGAGUUUACUCCUGCAUUUUCAACAGCUCGCAGUCAAG | -0.0648
GGUCACGUCUCAAUCAACUCUCCAGAGGGGGGGAAAACCCCUUUACCCUCCAUCUCAACAGCUCGCAGUCAAG | -0.112
GGUCACGUCUCAAUCAACUCUAUAGAGGGGGGGAAAACCCCUUUACCCUCCAUUUCAACAGCUCGCAGUCAAG | -0.257
GGUCACGUCUCAAUCAACUCAUUUUCAGGAGUUUUCUCCUGUUUAUUCAACAGCUCGCAGUCAAG | 0.153
GGUCACGUCUCAAUCAACUCUUAAGAGGGGGGGAAAACCCCUUUACCCUCCAUGUCAACAGCUCGCAGUCAAG | -0.347
GGUCACGUCUCAAUCAACUCCUUCGAGGGGGGGAAAACCCCUUUACCCUCAACUUCAACAGCUCGCAGUCAAG | 0.109
GGUCACGUCUCAAUCAACUCUAUUUCAGGAGUUUUCUCCUGUUAACUCAACAGCUCGCAGUCAAG | 0.0827
GGUCACGUCUCAAUCAACUCUUAAGAGGGGGGGAAAACCCCUUUACCCUCAUUAUCAACAGCUCGCAGUCAAG | -0.0393
GGUCACGUCUCAAUCAACUCAUCGCCCAGGGAAAGCCCUGGUAUUUUCAACAGCUCGCAGUCAAG | -0.382

Sequence | binding signal (log2 fold change)
GGUCACGUCUCAAUCAACUCAUCCCCCAGGGAAACCCCUGGUUUUCUCAACAGCUCGCAGUCAAG | -0.0683
GGUCACGUCUCAAUCAACUCAUUCUCCAGGGAAAUCCCUGGUUUACUCAACAGCUCGCAGUCAAG | 0.22
GGUCACGUCUCAAUCAACUCCUAAGAGGGGGGGAAAACCCCUUUGCCCUCACACUCAACAGCUCGCAGUCAAG | -0.82
GGUCACGUCUCAAUCAACUCUUUCCCCAGGGAAAUCCCUGGCAAAUUCAACAGCUCGCAGUCAAG | 0.229
GGUCACGUCUCAAUCAACUCAUUAGAGGGGGGGAAAACCCCUUUGCCCUCAUCAUCAACAGCUCGCAGUCAAG | 0.191
GGUCACGUCUCAAUCAACUCUAUCUCAGGAGUUUUCUCCUGUAAUUUCAACAGCUCGCAGUCAAG | -0.193
GGUCACGUCUCAAUCAACUCAAUCUCAGGAGUUUGCUCCUGCAUAUUCAACAGCUCGCAGUCAAG | -0.0571
GGUCACGUCUCAAUCAACUCAUUCCCAGGAGUUUACUCCUGCUUUUUCAACAGCUCGCAGUCAAG | 0.0933
GGUCACGUCUCAAUCAACUCAAUUUCAGGAGUUUUCUCCUGCUUAGUCAACAGCUCGCAGUCAAG | 0.138
GGUCACGUCUCAAUCAACUCCAACGAGGGGGGGAAAACCCCUUUACCCUCUUAUUCAACAGCUCGCAGUCAAG | -0.21
GGUCACGUCUCAAUCAACUCUCCCGAGGGGGGGAAAACCCCUUUACCCUCUUUUUCAACAGCUCGCAGUCAAG | 0.135
GGUCACGUCUCAAUCAACUCUUCUCCCAGGGAAAUCCCUGGCAAUGUCAACAGCUCGCAGUCAAG | -0.0758
GGUCACGUCUCAAUCAACUCAAGUCCAGGAGUUUCCUCCUGCUUAUUCAACAGCUCGCAGUCAAG | 0.0241
GGUCACGUCUCAAUCAACUCAUCUCCCAGGGAAAGCCCUGGCAUUUUCAACAGCUCGCAGUCAAG | -0.138
GGUCACGUCUCAAUCAACUCAUUUCCAGGAGUUUUCUCCUGUUUUUUCAACAGCUCGCAGUCAAG | -0.0609
GGUCACGUCUCAAUCAACUCAAUUUCCAGGGAAAUCCCUGGCUAUUUCAACAGCUCGCAGUCAAG | -0.0682
GGUCACGUCUCAAUCAACUCACACGAGGGGGGGAAAACCCCUUUACCCUCAAUCUCAACAGCUCGCAGUCAAG | -0.408
GGUCACGUCUCAAUCAACUCAAUCUCAGGAGUUUUCUCCUGCAAUUUCAACAGCUCGCAGUCAAG | 0.0278
GGUCACGUCUCAAUCAACUCAAUCUCAGGAGUUUACUCCUGCUUAUUCAACAGCUCGCAGUCAAG | -0.0997
GGUCACGUCUCAAUCAACUCUUCCUCAGGAGUUUCCUCCUGUAAACUCAACAGCUCGCAGUCAAG | 0.02
GGUCACGUCUCAAUCAACUCUUCUUCAGGAGUUUACUCCUGCAUUUUCAACAGCUCGCAGUCAAG | -0.033
GGUCACGUCUCAAUCAACUCAUCGUCAGGAGUUUGCUCCUGCAUAUUCAACAGCUCGCAGUCAAG | 0.258
GGUCACGUCUCAAUCAACUCAUUAGAGGGGGGGAAAACCCCUUUACCCUCAAAAUCAACAGCUCGCAGUCAAG | -0.0707
GGUCACGUCUCAAUCAACUCAUCUUCAGGAGUUUCCUCCUGUAAUUUCAACAGCUCGCAGUCAAG | 0.0148
GGUCACGUCUCAAUCAACUCUUCCUCCAGGGAAAGCCCUGGCUUUCUCAACAGCUCGCAGUCAAG | 0.137

Sequence | binding signal (log2 fold change)
GGUCACGUCUCAAUCAACUCUACUUCCAGGGAAAACCCUGGCUUAUUCAACAGCUCGCAGUCAAG | -0.0575
GGUCACGUCUCAAUCAACUCUACAGAGGGGGGGAAAACCCCUUUACCCUCACUCUCAACAGCUCGCAGUCAAG | 0.332
GGUCACGUCUCAAUCAACUCAGUCUCCAGGGAAAUCCCUGGCUAUCUCAACAGCUCGCAGUCAAG | -0.087
GGUCACGUCUCAAUCAACUCAUCUCCCAGGGAAAUCCCUGGCUAAUUCAACAGCUCGCAGUCAAG | 0.157
GGUCACGUCUCAAUCAACUCAACUUCAGGAGUUUUCUCCUGCUUACUCAACAGCUCGCAGUCAAG | 0.0374
GGUCACGUCUCAAUCAACUCUCACGAGGGGGGGAAAACCCCUUUGCCCUCAACAUCAACAGCUCGCAGUCAAG | -0.1
GGUCACGUCUCAAUCAACUCAACUUCCAGGGAAACCCCUGGCUUUCUCAACAGCUCGCAGUCAAG | -0.0924
GGUCACGUCUCAAUCAACUCUUCUCCCAGGGAAAUCCCUGGCUAAUUCAACAGCUCGCAGUCAAG | 0.0702
GGUCACGUCUCAAUCAACUCUUCUCCCAGGGAAAUCCCUGGUUUUCUCAACAGCUCGCAGUCAAG | -0.0216
GGUCACGUCUCAAUCAACUCAAUUUCCAGGGAAACCCCUGGCUAACUCAACAGCUCGCAGUCAAG | -0.0681
GGUCACGUCUCAAUCAACUCUUCUUCCAGGGAAACCCCUGGCAAUUUCAACAGCUCGCAGUCAAG | 0.0173
GGUCACGUCUCAAUCAACUCUCUAGAGGGGGGGAAAACCCCUUUGCCCUCAAUCUCAACAGCUCGCAGUCAAG | -0.0129
GGUCACGUCUCAAUCAACUCAUCUUCCAGGGAAACCCCUGGUAAACUCAACAGCUCGCAGUCAAG | -0.0245
GGUCACGUCUCAAUCAACUCUUUCCCCAGGGAAAACCCUGGCAAUUUCAACAGCUCGCAGUCAAG | 0.0423
GGUCACGUCUCAAUCAACUCUUCUCCCAGGGAAAUCCCUGGCAUACUCAACAGCUCGCAGUCAAG | -0.16
GGUCACGUCUCAAUCAACUCAGUCCCAGGAGUUUGCUCCUGCUUUCUCAACAGCUCGCAGUCAAG | -0.217
GGUCACGUCUCAAUCAACUCUAGUCCAGGAGUUUUCUCCUGUUUUCUCAACAGCUCGCAGUCAAG | -0.0871
GGUCACGUCUCAAUCAACUCACAAGAGGGGGGGAAAACCCCUUUACCCUCCUACUCAACAGCUCGCAGUCAAG | -0.0725
GGUCACGUCUCAAUCAACUCUUCCCCCAGGGAAAUCCCUGGUAAACUCAACAGCUCGCAGUCAAG | -0.0244
GGUCACGUCUCAAUCAACUCCAUAGAGGGGGGGAAAACCCCUUUGCCCUCACUUUCAACAGCUCGCAGUCAAG | -0.107
GGUCACGUCUCAAUCAACUCAACUCCCAGGGAAACCCCUGGUAAAUUCAACAGCUCGCAGUCAAG | 0.307
GGUCACGUCUCAAUCAACUCAUUCUCCAGGGAAAGCCCUGGCUAAUUCAACAGCUCGCAGUCAAG | -0.0647
GGUCACGUCUCAAUCAACUCAUCUCCCAGGGAAACCCCUGGCUAAUUCAACAGCUCGCAGUCAAG | -0.0708
GGUCACGUCUCAAUCAACUCAUACGAGGGGGGGAAAACCCCUUUGCCCUCAUUAUCAACAGCUCGCAGUCAAG | -0.421

From article PMC5892938
